Experimental data published in the supplement of paper PMC4967469.

Key:
Experiment in all cases: Viability of human cancer cell lines after 72 h of drug (GDSC screen)
[1] = compound: NC(=O)Nc1cc(-c2cccc(F)c2)sc1C(=O)N[C@H]1CCCNC1 [AZD7762]; conditions: top dose 2 µM
Experimental: (§1)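 Human cancer cell lines in 384-well plates, medium with 10% serum, drug for 72 h over a 256-fold dose range (nine 2-fold or five 4-fold steps up to the top dose). Adherent lines were fixed and stained with the nucleic acid dye Syto60, suspension lines read with resazurin; signal relative to control wells, capped at 0 and 100%. One two-parameter sigmoid per drug and line, fitted in a mixed model over all curves with the slope shared within a line.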

[2] = compound: C=C(c1ccc(C(=O)O)cc1)c1cc2c(cc1C)C(C)(C)CCC2(C)C [Bexarotene]; conditions: top dose 8 µM
Experimental: as §1

[3] = compound: Oc1nc(-c2ccc(C(F)(F)F)cc2)nc2c1CSCC2 [XAV 939]; conditions: top dose 5 µM; top dose inferred
Experimental: as §1

[4] = compound: COc1ccc(C(=O)CC2(O)C(=O)Nc3c(Cl)ccc(Cl)c32)cc1 [YK 4-279]; conditions: top dose 10 µM
Experimental: as §1

[5] = compound: COc1cc([C@@H]2c3cc4c(cc3[C@@H](O[C@@H]3O[C@@H]5CO[C@@H](C)O[C@H]5[C@H](O)[C@H]3O)[C@H]3COC(=O)[C@H]23)OCO4)cc(OC)c1O [Etoposide]; conditions: top dose 16 µM
Experimental: as §1

[6] = compound: O=C(O)c1ccc(-c2c[nH]c3ncc(-c4ccccc4)cc23)cc1C1CCCC1 [GSK-650394]; conditions: top dose 16 µM; top dose inferred
Experimental: as §1

[7] = compound: Cc1ccc2nc(NCCN)c3ncc(C)n3c2c1 [BMS-345541]; conditions: top dose 16 µM
Experimental: as §1

[8] = compound: COc1cc(C(=O)NC2CCN(C)CC2)ccc1Nc1ncc2c(n1)N(C1CCCC1)C(C)CC(=O)N2C [NPK76-II-72-1]; conditions: top dose 10.24 µM; top dose inferred
Experimental: as §1

TT (thyroid, adherent) gave an AUC [1] of 0.654, an IC50 [1] of 396 nM and an AUC [2] of 0.98. The IC50 [2] was over 8 µM, the AUC [3] was 0.978 and the IC50 [3] was over 5 µM. For the same cell line, the AUC [4] was 0.955, the IC50 [4] was over 10 µM and the AUC [5] was 0.978. For the same cell line, the IC50 [5] was over 16 µM, the AUC [6] was 0.953 and the IC50 [6] was over 16 µM. It also gave an AUC [7] of 0.941, an IC50 [7] of over 16 µM and an AUC [8] of 0.961. For the same cell line, the IC50 [8] was over 10.2 µM.

Cell Line TUR (B-cell lymphoma, suspension) has an AUC [1] of 0.602, an IC50 [1] of 232 nM and an AUC [2] of 0.92. It also gave an IC50 [2] of over 8 µM, an AUC [3] of 0.98 and an IC50 [3] of over 5 µM. It also gave an AUC [4] of 0.485, an IC50 [4] of 0.572 µM and an AUC [5] of 0.455. For the same cell line, the IC50 [5] was 0.762 µM, the AUC [6] was 0.745 and the IC50 [6] was 4.71 µM. For the same cell line, the AUC [7] was 0.831, the IC50 [7] was 9.11 µM and the AUC [8] was 0.397. The IC50 [8] was 0.342 µM.

For U-118-MG (glioma, adherent), the AUC [1] was 0.815, the IC50 [1] was 1330 nM and the AUC [2] was 0.939. It also gave an IC50 [2] of over 8 µM, an AUC [3] of 0.984 and an IC50 [3] of over 5 µM. The AUC [4] was 0.792, the IC50 [4] was 5.33 µM and the AUC [5] was 0.972. It also gave an IC50 [5] of over 16 µM, an AUC [6] of 0.934 and an IC50 [6] of over 16 µM. The AUC [7] was 0.983, the IC50 [7] was over 16 µM and the AUC [8] was 0.966. The IC50 [8] was over 10.2 µM.

U-698-M (B-cell leukaemia, suspension) gave an AUC [1] of 0.553, an IC50 [1] of 175 nM and an AUC [2] of 0.978. The IC50 [2] was over 8 µM, the AUC [3] was 0.959 and the IC50 [3] was over 5 µM. For the same cell line, the AUC [4] was 0.7, the IC50 [4] was 2.28 µM and the AUC [5] was 0.861. The IC50 [5] was 13.5 µM, the AUC [6] was 0.935 and the IC50 [6] was over 16 µM. It also gave an AUC [7] of 0.884, an IC50 [7] of over 16 µM and an AUC [8] of 0.775. The IC50 [8] was 4.06 µM.

In the case of UMC-11 (lung carcinoid, adherent), the AUC [1] is reported as 0.858, the IC50 [1] is reported as 1370 nM and the AUC [2] is reported as 0.949. For the same cell line, the IC50 [2] was over 8 µM, the AUC [3] was 0.977 and the IC50 [3] was over 5 µM. It also gave an AUC [4] of 0.781, an IC50 [4] of 3.68 µM and an AUC [5] of 0.896. The IC50 [5] was over 16 µM, the AUC [6] was 0.863 and the IC50 [6] was 11.5 µM. It also gave an AUC [7] of 0.908, an IC50 [7] of over 16 µM and an AUC [8] of 0.849. For the same cell line, the IC50 [8] was 6.48 µM.

With VA-ES-BJ (soft tissue, adherent) the AUC [1] was 0.618, the IC50 [1] was 269 nM and the AUC [2] was 0.935. The IC50 [2] was over 8 µM, the AUC [3] was 0.917 and the IC50 [3] was over 5 µM. For the same cell line, the AUC [4] was 0.656, the IC50 [4] was 1.74 µM and the AUC [5] was 0.373. For the same cell line, the IC50 [5] was 0.438 µM, the AUC [6] was 0.792 and the IC50 [6] was 7.67 µM. For the same cell line, the AUC [7] was 0.984, the IC50 [7] was over 16 µM and the AUC [8] was 0.97. The IC50 [8] was over 10.2 µM.

With WM35 (melanoma, adherent) the AUC [1] was 0.706, the IC50 [1] was 477 nM and the AUC [2] was 0.941. The IC50 [2] was over 8 µM, the AUC [3] was 0.985 and the IC50 [3] was over 5 µM. It also gave an AUC [4] of 0.697, an IC50 [4] of 2.24 µM and an AUC [5] of 0.717. The IC50 [5] was 4.14 µM, the AUC [6] was 0.954 and the IC50 [6] was over 16 µM. For the same cell line, the AUC [7] was 0.851, the IC50 [7] was 12.4 µM and the AUC [8] was 0.778. It also gave an IC50 [8] of 4.18 µM.

With WM278 (melanoma, adherent) the AUC [1] was 0.596, the IC50 [1] was 237 nM and the AUC [2] was 0.97. For the same cell line, the IC50 [2] was over 8 µM, the AUC [3] was 0.966 and the IC50 [3] was over 5 µM. For the same cell line, the AUC [4] was 0.757, the IC50 [4] was 3.85 µM and the AUC [5] was 0.648. The IC50 [5] was 2.71 µM, the AUC [6] was 0.955 and the IC50 [6] was over 16 µM. It also gave an AUC [7] of 0.861, an IC50 [7] of over 16 µM and an AUC [8] of 0.908. The IC50 [8] was over 10.2 µM.

Work on WM793B (melanoma, adherent) yielded an AUC [1] of 0.671, an IC50 [1] of 395 nM and an AUC [2] of 0.968. The IC50 [2] was over 8 µM, the AUC [3] was 0.95 and the IC50 [3] was over 5 µM. For the same cell line, the AUC [4] was 0.738, the IC50 [4] was 3.25 µM and the AUC [5] was 0.638. For the same cell line, the IC50 [5] was 2.52 µM, the AUC [6] was 0.837 and the IC50 [6] was 12.4 µM. For the same cell line, the AUC [7] was 0.872, the IC50 [7] was over 16 µM and the AUC [8] was 0.956. The IC50 [8] was over 10.2 µM.

Work on WM1552C (melanoma, adherent) yielded an AUC [1] of 0.838, an IC50 [1] of 1370 nM and an AUC [2] of 0.959. For the same cell line, the IC50 [2] was over 8 µM, the AUC [3] was 0.986 and the IC50 [3] was over 5 µM. The AUC [4] was 0.537, the IC50 [4] was 0.789 µM and the AUC [5] was 0.856. The IC50 [5] was 13 µM, the AUC [6] was 0.705 and the IC50 [6] was 3.79 µM. It also gave an AUC [7] of 0.846, an IC50 [7] of 11.7 µM and an AUC [8] of 0.988. For the same cell line, the IC50 [8] was over 10.2 µM.

Cell Line YAPC (pancreas, adherent) has an AUC [1] of 0.886, an IC50 [1] of over 2000 nM and an AUC [2] of 0.936. It also gave an IC50 [2] of over 8 µM, an AUC [3] of 0.911 and an IC50 [3] of over 5 µM. It also gave an AUC [4] of 0.943, an IC50 [4] of over 10 µM and an AUC [5] of 0.904. The IC50 [5] was over 16 µM, the AUC [6] was 0.985 and the IC50 [6] was over 16 µM. It also gave an AUC [7] of 0.913, an IC50 [7] of over 16 µM and an AUC [8] of 0.984. It also gave an IC50 [8] of over 10.2 µM.

For YKG-1 (glioma, adherent), the AUC [1] was 0.838, the IC50 [1] was 1380 nM and the AUC [2] was 0.956. The IC50 [2] was over 8 µM, the AUC [3] was 0.976 and the IC50 [3] was over 5 µM. The AUC [4] was 0.702, the IC50 [4] was 2.34 µM and the AUC [5] was 0.531. It also gave an IC50 [5] of 1.22 µM, an AUC [6] of 0.763 and an IC50 [6] of 5.86 µM. For the same cell line, the AUC [7] was 0.841, the IC50 [7] was 11.4 µM and the AUC [8] was 0.934. The IC50 [8] was over 10.2 µM.

Cell Line YT (lymphoid neoplasm, suspension) has an AUC [1] of 0.5, an IC50 [1] of 125 nM and an AUC [2] of 0.922. The IC50 [2] was over 8 µM, the AUC [3] was 0.986 and the IC50 [3] was over 5 µM. The AUC [4] was 0.782, the IC50 [4] was 3.53 µM and the AUC [5] was 0.857. For the same cell line, the IC50 [5] was 10 µM, the AUC [6] was 0.854 and the IC50 [6] was 9.78 µM. For the same cell line, the AUC [7] was 0.766, the IC50 [7] was 5.05 µM and the AUC [8] was 0.904. For the same cell line, the IC50 [8] was 10.1 µM.

For huH-1 (liver, adherent), the AUC [1] was 0.67, the IC50 [1] was 420 nM and the AUC [2] was 0.978. It also gave an IC50 [2] of over 8 µM, an AUC [3] of 0.952 and an IC50 [3] of over 5 µM. For the same cell line, the AUC [4] was 0.649, the IC50 [4] was 1.79 µM and the AUC [5] was 0.973. For the same cell line, the IC50 [5] was over 16 µM, the AUC [6] was 0.958 and the IC50 [6] was over 16 µM. For the same cell line, the AUC [7] was 0.981, the IC50 [7] was over 16 µM and the AUC [8] was 0.984. The IC50 [8] was over 10.2 µM.

Work on no-10 (glioma, adherent) yielded an AUC [1] of 0.979, an IC50 [1] of over 2000 nM and an AUC [2] of 0.946. For the same cell line, the IC50 [2] was over 8 µM, the AUC [3] was 0.934 and the IC50 [3] was over 5 µM. The AUC [4] was 0.807, the IC50 [4] was 6.57 µM and the AUC [5] was 0.673. For the same cell line, the IC50 [5] was 3.4 µM, the AUC [6] was 0.932 and the IC50 [6] was over 16 µM. It also gave an AUC [7] of 0.867, an IC50 [7] of over 16 µM and an AUC [8] of 0.982. It also gave an IC50 [8] of over 10.2 µM.

no-11 (glioma, adherent) was tested, and the AUC [1] was 0.845, the IC50 [1] was over 2000 nM and the AUC [2] was 0.916. The IC50 [2] was over 8 µM, the AUC [3] was 0.976 and the IC50 [3] was over 5 µM. For the same cell line, the AUC [4] was 0.768, the IC50 [4] was 4.69 µM and the AUC [5] was 0.704. For the same cell line, the IC50 [5] was 4.38 µM, the AUC [6] was 0.918 and the IC50 [6] was over 16 µM. For the same cell line, the AUC [7] was 0.911, the IC50 [7] was over 16 µM and the AUC [8] was 0.972. For the same cell line, the IC50 [8] was over 10.2 µM.

The IC50 comes from the fitted curve, where viability falls to half of the control; a limit (>, <) means that the fit lies beyond the doses tested. The AUC spans the tested range (256-fold, ending at the top dose) of the same fit; values near 1 show little effect. For some of these results: An inferred top dose is not printed in the source and was worked back from the curve model.
